Measured values from the supplement of paper PMC4604168 (melanoma cell lines).
The list shows a part of the results. Single values are uncertain, as repeats are few or missing.
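Further: cell number obtained by counting DAPI-stained nuclei in high-throughput microscope images with image analysis software, screen run in 1,536-well plates.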

These compounds were tested on SkMel2 (assay: cell count relative to DMSO control; melanoma cells; higher = more viable cells). Settings: library dose: low library concentration; 72 h.
In the case of C[C@]1(O)C[C@@H](c2nc(-c3ccc4ccc(-c5ccccc5)nc4c3)c3c(N)nccn32)C1 + CO[C@@H]1[C@H](N(C)C(=O)c2ccccc2)C[C@H]2O[C@]1(C)n1c3ccccc3c3c4c(c5c6ccccc6n2c5c31)C(=O)NC4 [Midostaurin] (first compound 0.4 µM, partner dose 0.08 µM), the cell count is reported as 81%.
In the case of CCN(CC)CCNC(=O)c1c(C)[nH]c(/C=C2\C(=O)Nc3ccc(F)cc32)c1C [sunitinib] + C[C@@H]1CCN(C(=O)CC#N)C[C@@H]1N(C)c1ncnc2[nH]ccc12 [CP690550] (first compound 0.4 µM, partner dose 1 µM), the cell count is reported as 110%.
Cn1cnc2c(F)c(Nc3ccc(Br)cc3Cl)c(C(=O)NOCCO)cc21 [selumetinib] + CCc1ccc(CCOc2ccc(CC3SC(=O)NC3=O)cc2)nc1 [pioglitazone] (first compound 0.015 µM, partner dose 2 µM) gave a cell count of 81.8%.
In the case of C[C@]1(O)C[C@@H](c2nc(-c3ccc4ccc(-c5ccccc5)nc4c3)c3c(N)nccn32)C1 + CCN(CC)CCCCNc1ncc2cc(-c3cc(OC)cc(OC)c3)c(NC(=O)NC(C)(C)C)nc2n1 [PD173074] (first compound 0.4 µM, partner dose 0.1 µM), the cell count is reported as 83.3%.
For COc1cc([C@@H]2c3cc4c(cc3[C@@H](O[C@@H]3O[C@@H]5CO[C@@H](C)O[C@H]5[C@H](O)[C@H]3O)[C@H]3COC(=O)[C@H]23)OCO4)cc(OC)c1O [etoposide] + CN(NC(=O)CC(=O)NN(C)C(=S)c1ccccc1)C(=S)c1ccccc1 [STA4783] (first compound 0.02 µM, partner dose 0.006 µM), the cell count was 98.6%.
For C[C@]1(O)C[C@@H](c2nc(-c3ccc4ccc(-c5ccccc5)nc4c3)c3c(N)nccn32)C1 + Cc1cc([N+](=O)[O-])ccc1NS(=O)(=O)c1cc(Cl)ccc1Cl [FH535] (first compound 0.4 µM, partner dose 1 µM), the cell count was 83.7%.
For CCN(CC)CCNC(=O)c1c(C)[nH]c(/C=C2\C(=O)Nc3ccc(F)cc32)c1C [sunitinib] + COC(=O)c1sccc1S(=O)(=O)Nc1ccc(Nc2ccccc2)cc1OC [GSK0660] (first compound 0.4 µM, partner dose 1 µM), the cell count was 116%.
With Cn1cnc2c(F)c(Nc3ccc(Br)cc3Cl)c(C(=O)NOCCO)cc21 [selumetinib] + COc1cc2c(Oc3ccc4[nH]c(C)cc4c3F)ncnc2cc1OCCCN1CCCC1 [cediranib] (first compound 0.015 µM, partner dose 0.4 µM) the cell count was 86.6%.
Work on Cn1cnc2c(F)c(Nc3ccc(Br)cc3Cl)c(C(=O)NOCCO)cc21 [selumetinib] + COc1cc2ncnc(Nc3ccc(Oc4ccccc4)cc3)c2cc1OC [SrcI1] (first compound 0.015 µM, partner dose 2 µM) yielded a cell count of 88%.
Cn1cnc2c(F)c(Nc3ccc(Br)cc3Cl)c(C(=O)NOCCO)cc21 [selumetinib] + NC(=O)Nc1cc(-c2cccc(F)c2)sc1C(=O)N[C@H]1CCCNC1 [AZD7762] (first compound 0.015 µM, partner dose 0.02 µM) showed a cell count of 77.3%.
COc1cc([C@@H]2c3cc4c(cc3[C@@H](O[C@@H]3O[C@@H]5CO[C@@H](C)O[C@H]5[C@H](O)[C@H]3O)[C@H]3COC(=O)[C@H]23)OCO4)cc(OC)c1O [etoposide] + Cn1cncc1[C@@](N)(c1ccc(Cl)cc1)c1ccc2c(c1)c(-c1cccc(Cl)c1)cc(=O)n2C [tipifarnib] (first compound 0.02 µM, partner dose 0.01 µM) showed a cell count of 80.7%.
For CCN(CC)CCNC(=O)c1c(C)[nH]c(/C=C2\C(=O)Nc3ccc(F)cc32)c1C [sunitinib] + O=C(CCCCCCC(=O)Nc1ccccc1)NO [vorinostat] (first compound 0.4 µM, partner dose 0.08 µM), the cell count was 111%.
Work on COc1cc([C@@H]2c3cc4c(cc3[C@@H](O[C@@H]3O[C@@H]5CO[C@@H](C)O[C@H]5[C@H](O)[C@H]3O)[C@H]3COC(=O)[C@H]23)OCO4)cc(OC)c1O [etoposide] + Cc1cc([N+](=O)[O-])ccc1NS(=O)(=O)c1cc(Cl)ccc1Cl [FH535] (first compound 0.02 µM, partner dose 1 µM) yielded a cell count of 98.9%.
